From PubChem BioAssay AID504832 (National Center for Advancing Translational Sciences (NCATS), 2011)
In all, about 310,000 compounds went through this assay and about 18,000 (5.8%) were called active. Inconclusive results, whose numbers are uncertain, are shown with a selection of clear calls. Calls come from the whole dose curve; as a rule, active = well fitted inhibition curve with a large enough effect; inconclusive = small, poorly fitted or top-dose-only effect, or another doubt; inactive = no such curve, though single readings can be large or run the other way. No potency is given beside an inconclusive call; the fits are too rough.

Assay: Primary qHTS for delayed death inhibitors of the malarial parasite plastid, 48 hour incubation
Settings: P. falciparum luciferase growth in erythrocytes; series mostly up to 28.7 µM; activity change, negative = inhibition: at the top concentration
Method in brief: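 A one-generation exposure of luciferase-tagged malaria parasites in RPMI 1640/Albumax erythrocyte culture, 37 C and 5% CO2. Inhibition is inferred from decreased luminescence after adding detection reagent.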
% is set by controls: 0 for no effect and ±100 for the full control effect; potency is the fitted concentration of half-maximal effect; tags give direction and shape of the fitted curve.

SMILES | Potency | activity change, negative = inhibition
COc1ccccc1-c1nc2c(c(SCC(=O)N3CCCCC3)n1)Cc1c(CO)cnc(C)c1O2 | active: 10.4 µM | –
O=C(CSc1nnnn1C1CCCCC1)N1CCN(C(=O)c2ccco2)CC1 | inconclusive [inhibitor, single point] | –
COc1cc2cc(CN(CCc3cccc(C)c3)C(=S)NCCCN(C)C)c(=O)[nH]c2cc1OC | active: 13.1 µM | –
CCOCCCNc1nc2c(C)cccn2c(=O)c1/C=C1\SC(=S)N(C(C)CC)C1=O (stereo not given) | inconclusive [inhibitor, partial curve, poor fit] | –
Cc1ccc(C2(CCN)CCOC(C(C)C)C2)cc1 (stereo not given) | inconclusive [inhibitor, single point] | –
Cc1ccc(C#CC[N+](C)(C)CC#Cc2ccccc2)cc1 | active: 2.33 µM | –
C/C(=N\NC(=O)c1nc2ccccn2c1C)c1cccc([N+](=O)[O-])c1 | inconclusive [inhibitor, single point] | –
Nc1ccc(-c2cc3ccccc3oc2=O)cc1 | inconclusive [inhibitor, full curve, poor fit] | –
C=CCn1c(O)c(C=NCCCn2ccnc2)c(=O)[nH]c1=O | inconclusive [inhibitor, full curve, poor fit] | –
COCc1c(C(=O)NCc2ccccc2CN2CCCC2)oc2ccccc12 | inconclusive [inhibitor, single point] | –
C[N+]1(CC(=O)NNc2c3ccccc3nc3ccccc23)CCOCC1 | inconclusive [inhibitor, full curve, poor fit] | –
COc1ccccc1C(=O)Nc1nnc(-c2ccc(F)cc2)s1 | – | inactive: 5.92%
Oc1ccc2[nH]cnc2c1CN1CCCCC1 | inconclusive [inhibitor, single point] | –
O=C(COC(=O)CNC(=O)C1CCCCC1)Nc1ccc(Cl)cn1 | – | inactive: 10.9%
Cc1cccc(NC(=O)c2ccc(N3C(=O)C4CCCCC4C3=O)cc2)c1C (stereo not given) | – | inactive: 11.2%
c1cncc(-c2nc3cc(Cc4ccc5oc(-c6cccnc6)nc5c4)ccc3o2)c1 | – | inactive: 12.7%
Fc1ccc(CSc2ccc(-c3cccs3)nn2)cc1 | – | inactive: 113%
CC1=Nc2ccccc2/C1=C\c1sc(Nc2ccc(C)cc2)nc1O | inconclusive [inhibitor, single point] | –
COc1ccc(-c2noc(N3CCC(C(=O)N4CCN(c5ccccn5)CC4)CC3)n2)cc1 | inconclusive [inhibitor, partial curve, poor fit] | –
CCc1ccc(NC(=O)N(Cc2ccco2)C(C)c2cccs2)cc1 (stereo not given) | inconclusive [inhibitor, partial curve, poor fit] | –
